Assay results published in PubChem BioAssay (NCATS).
The shares of active, inactive and inconclusive entries below differ from those in the screen. For some of these results: Potencies of inconclusive entries are left out as doubtful fits. Calls of active or inactive are those of the source. Unless noted, calls come from the whole dose curve; as a rule, active = well fitted curve in the direction sought with a large enough effect; inconclusive = small, poorly fitted or top-dose-only effect, or another doubt; inactive = no such curve, though single readings can be large; an effect the other way counts as inactive or inconclusive.

Columns and labels:
[1] = qHTS of pediatric cancer cell lines to identify multiple opportunities for drug repurposing: Primary screen for SK-N-SH cells (AID 1347098); settings: SK-N-SH viability, CellTiter-Glo luminescence, 48 h; activity change, negative = cytotoxic: at 57 µM (top of the series); note: nearly all actives have a fitted effect of over 65% in size; note: potency is the fitted concentration of half-maximal effect;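 for activity change, negative = cytotoxic: DMSO served as neutral control and bortezomib at 2.3 µM as positive control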
In short: (§1)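 Cells (500-1,000/well) rested 5 h, then received compounds for 48 h; metabolically active cells were measured by CellTiter-Glo luminescence. Final concentrations spanned up to 46 µM (MIPE, 11-point) or 0.59 nM-46 µM (NPC, 8-point) in primary screens, 11-point in follow-ups.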

[2] = A High-Content qHTS Against Drug Library for the Identification of Small Molecules that Inhibit DYT1 Early Onset Primary Dystonia-Associated Cell Pathology (AID 1645839; calls by dose curve; note: potency is the fitted concentration of half-maximal effect)
In short: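 Cells were seeded and left for 24 h, then dosed with compound alongside tetracycline induction of mutant EGFP-TorsinA. They were incubated for 48 h, fixed in 4% paraformaldehyde, permeabilized and imaged for mislocalization (%pathology) and cell count.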

[3] = target: Cytochrome P450 2D6 (Homo sapiens) (UniProt P10635); assay: Cytochrome P450 family 2 subfamily D member 6 (CYP2D6) small molecule antagonists: luciferase biochemical (cell-free) qHTS assay (AID 1645840; active = well fitted curve in the direction sought with a large enough effect in the repeat runs; inconclusive = weak or mixed curves; inactive = no such curve, though single readings can be large; an effect the other way counts as inactive or inconclusive; note: potency is the fitted concentration of half-maximal effect; nearly all actives have a fitted effect of over 55% in size)
In short: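 P450-Glo CYP2D6 system: proluciferin substrate converted by enzyme to luciferin, read by luminescence proportional to activity. Enzyme-substrate mix with compound 10 min at room temperature, then NADPH regeneration 1 h before detection reagent.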

HeLa = assay: Primary qHTS to identify gynecologic anti-cancer compounds using libraries of approved drugs and bioactive compounds (AID 1345084); settings: Gynecologic cancer cell panel viability, ATPlite luminescence, 48 h; series mostly up to 57.5 µM; note: potency is the fitted concentration of half-maximal effect; nearly all actives have a fitted effect of over 55% in size
In short: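 Cells, 1,000 per well, were allowed to settle for 16 h at 37 C before compound addition. Five concentrations were tested for 48 h, and viability was read by ATPlite luminescence after 15 min at room temperature.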

[4] = target: Phospholipid hydroperoxide glutathione peroxidase GPX4 (Homo sapiens) (UniProt P36969); assay: Primary qHTS Assay for Inhibitors of Recombinant Selenoprotein Glutathione Peroxidase 4 (GPX4) (AID 1845192); note: nearly all actives have a fitted effect of over 65% in size; note: potency is the fitted concentration of half-maximal effect
In short: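 Steps: GPX4 plus compound, 30 min RT; add GR/GSH/NADPH master mix; start with cumene hydroperoxide; read 340/450 nm fluorescence at 0 and 15 min. Finals were 200 nM GPX4, 1 mM GSH, 0.5 mM CHP, 0.5 mM NADPH, 100 nM GR.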

[5] = tested on: Zika virus NS2B-NS3 protease (unlinked complex); assay: Primary screen GU Rhodamine qHTS for Zika virus inhibitors: Unlinked NS2B-NS3 protease assay (AID 1347159); note: nearly all actives have a fitted effect of over 60% in size; note: potency is the fitted concentration of half-maximal effect
In short: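 Percent inhibition came from the 15-min rise in Rhodamine110 fluorescence (1.5 microM substrate, ~15% conversion), normalized to no-inhibitor and no-enzyme wells and Hill-fitted. Unlinked protease, 25 nM, pH 8.0 Tris buffer; compounds up to 114 microM, 15-min preincubation.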

[6] = tested on: Zika virus NS2B-NS3 protease (linked construct); assay: Primary screen NINDS Rhodamine qHTS for Zika virus inhibitors (AID 1347160); note: nearly all actives have a fitted effect of over 55% in size
In short: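 Rhodamine110-peptide cleavage (1.5 µM substrate) by 25 nM linked NS2B-NS3 enzyme at pH 8.0 (Tris, Tween 20), after 15 min RT preincubation with compounds; 15-min fluorescence change normalized to controls and Hill-fitted.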

[7] = Primary redox qHTS assay for identification of artifact compounds. (AID 1845223); note: potency is the fitted concentration of half-maximal effect
In short: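 Redox-cycling detection via DTT (250 uM final) oxidation coupled to Amplex Red (25 uM)/HRP (250 mU/mL) in HBSS. 15 min preincubation plus 30 min after DTT, room temperature. Ex/Em 525/598 nm; 4-parameter Hill fit against DMSO and 10 uM DA3003.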

[8] = qHTS of pediatric cancer cell lines to identify multiple opportunities for drug repurposing: Primary screen for Saos-2 cells (AID 1347097); settings: Saos-2 viability, CellTiter-Glo ATP luminescence, 48 h; activity change, negative = cytotoxic: at 46 µM (top of the series); note: nearly all actives have a fitted effect of over 40% in size; note: potency is the fitted concentration of half-maximal effect
In short: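 ATP-based luminescence (CellTiter-Glo) quantifies viability after a 48-hour exposure. Compounds are dosed across 8 or 11 final concentrations; DMSO and 2.3 µM bortezomib serve as controls.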

[9] = qHTS of pediatric cancer cell lines to identify multiple opportunities for drug repurposing: Primary screen for BT-12 cells (AID 1347101); note: potency is the fitted concentration of half-maximal effect; nearly all actives have a fitted effect of over 25% in size
In short: as §1

[10] = qHTS of pediatric cancer cell lines to identify multiple opportunities for drug repurposing: Primary screen for OHS-50 cells (AID 1347103); note: potency is the fitted concentration of half-maximal effect; nearly all actives have a fitted effect of over 40% in size
In short: as §1

[11] = Primary qHTS for small molecule stabilizers of the endoplasmic reticulum resident proteome: Secreted ER Calcium Modulated Protein (SERCaMP) assay (AID 1508630); settings: SH-SY5Y GLuc-SERCaMP (Gaussia luciferase released on ER calcium loss) secretion, thapsigargin, luminescence; series mostly up to 38.4 µM; note: potency is the fitted concentration of half-maximal effect
In short: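 The SH-SY5Y reporter protocol was run at 3 concentrations up to 38.3 uM (primary) or 11 concentrations (follow-up): 16 h compound, 100 nM thapsigargin for 4 h, then extracellular luciferase luminescence.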

[12] = target: Cytochrome P450 3A4 (Homo sapiens) (UniProt P08684); assay: Cytochrome P450 family 3 subfamily A member 4 (CYP3A4) small molecule antagonists: luciferase qHTS assay (AID 1645841; active = well fitted curve in the direction sought with a large enough effect in the repeat runs; inconclusive = weak or mixed curves; inactive = no such curve, though single readings can be large; an effect the other way counts as inactive or inconclusive; note: potency is the fitted concentration of half-maximal effect; nearly all actives have a fitted effect of over 45% in size)
In short: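 P450-Glo CYP3A4 enzyme with proluciferin substrate preincubated 10 min with compound at room temperature, then NADPH regeneration 1 h. Luciferin detection reagent added for 20 min; luminescence recorded. Ketoconazole positive control.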

UISO = assay: qHTS assay to identify novel small-molecules to repurpose for Merkel cell carcinoma treatment (AID 1296009); settings: MCC and control cell lines, CellTiter-Glo viability, 72 h; series mostly up to 46 µM; note: nearly all actives have a fitted effect of over 60% in size; note: potency is the fitted concentration of half-maximal effect
In short: (§2)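 CellTiter-Glo luminescence after 72 hr compound exposure at 37 degree celsius gave cell viability. Libraries NPC and MIPE were run as 8- and 11-point dose responses; RLUs normalized to DMSO (negative) and no-cell (cytotoxicity) controls.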

WaGa = assay: as above; settings: MCC and control cell lines, CellTiter-Glo viability, 72 h; series mostly up to 46 µM
In short: as §2

[13] = qHTS of pediatric cancer cell lines to identify multiple opportunities for drug repurposing: Primary screen for SK-N-MC cells (AID 1347093); settings: SK-N-MC viability, CellTiter-Glo luminescence, 48 h; activity change, negative = cytotoxic: at 46 µM (top of the series); note: potency is the fitted concentration of half-maximal effect
In short: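 Metabolically active cells were quantified by ATP-dependent luminescence (CellTiter-Glo, 15 min at room temperature) following 48 h treatment. Cells had been plated at 500-1,000 per well and settled for 5 h beforehand.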
Tags give direction and shape of the fitted curve.

Sequence of UniProt P36969 (P36969 whole entry, looked up): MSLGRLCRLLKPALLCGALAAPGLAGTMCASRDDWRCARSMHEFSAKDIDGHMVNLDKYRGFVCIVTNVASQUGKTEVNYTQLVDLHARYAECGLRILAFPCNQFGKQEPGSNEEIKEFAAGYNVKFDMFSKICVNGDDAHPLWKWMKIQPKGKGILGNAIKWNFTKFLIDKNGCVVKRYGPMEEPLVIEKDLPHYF
Sequence of UniProt P10635 (P10635 whole entry, looked up): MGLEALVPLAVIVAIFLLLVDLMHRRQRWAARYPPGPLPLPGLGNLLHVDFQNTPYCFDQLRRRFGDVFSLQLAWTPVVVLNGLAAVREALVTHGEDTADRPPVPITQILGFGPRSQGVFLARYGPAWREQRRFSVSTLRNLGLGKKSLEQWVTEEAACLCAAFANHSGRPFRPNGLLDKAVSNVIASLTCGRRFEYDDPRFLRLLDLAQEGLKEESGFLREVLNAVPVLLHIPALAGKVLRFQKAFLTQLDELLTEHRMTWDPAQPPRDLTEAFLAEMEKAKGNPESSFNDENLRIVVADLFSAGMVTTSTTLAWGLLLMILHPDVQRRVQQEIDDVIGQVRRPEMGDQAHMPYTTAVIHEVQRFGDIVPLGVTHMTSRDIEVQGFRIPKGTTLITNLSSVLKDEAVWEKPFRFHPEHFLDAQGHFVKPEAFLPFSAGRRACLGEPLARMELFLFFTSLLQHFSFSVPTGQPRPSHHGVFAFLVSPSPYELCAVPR
Sequence of UniProt P08684 (P08684 whole entry, looked up): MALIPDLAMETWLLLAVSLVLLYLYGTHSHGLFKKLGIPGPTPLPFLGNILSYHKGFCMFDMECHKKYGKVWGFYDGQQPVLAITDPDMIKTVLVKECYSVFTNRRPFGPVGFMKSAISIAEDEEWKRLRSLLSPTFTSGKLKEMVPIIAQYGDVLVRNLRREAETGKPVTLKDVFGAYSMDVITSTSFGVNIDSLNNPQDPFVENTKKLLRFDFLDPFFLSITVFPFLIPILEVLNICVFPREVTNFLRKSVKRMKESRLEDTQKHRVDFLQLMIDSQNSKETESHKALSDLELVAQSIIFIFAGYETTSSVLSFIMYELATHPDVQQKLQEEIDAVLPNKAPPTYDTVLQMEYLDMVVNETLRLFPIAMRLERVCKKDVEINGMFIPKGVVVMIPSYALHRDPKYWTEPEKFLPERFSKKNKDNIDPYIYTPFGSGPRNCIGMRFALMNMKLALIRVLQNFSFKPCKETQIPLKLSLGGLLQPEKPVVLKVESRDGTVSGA

CN(C)CCOC(c1ccc(Cl)cc1)c1ccccn1 (stereo not given)
Potency [1]: inactive | Potency [2]: inconclusive [inhibitor, single point] | Potency [3]: active: 15.5 µM | Potency (HeLa): inconclusive [cytotoxic, single point]

Cc1ccc(NC(=O)N2CCN(c3nc(N)nc4sc(-c5cccnc5)nc34)CC2)cc1
Potency [4]: active: 2.55 µM

CC(/C=C/C(=O)NO)=C\[C@@H](C)C(=O)c1ccc(N(C)C)cc1
Potency [5]: inconclusive [inhibitor, single point] | Potency [6]: inactive | Potency (HeLa): active: 3.55 µM

Cn1cc(S(=O)(=O)c2ccc(Cl)cc2)c2cccc(N3CCNCC3)c21
Potency [7]: inconclusive [activator, partial curve, poor fit]

C=C1C(=O)OC2/C=C(\C)CC/C=C(\C)CC(OC(C)=O)C12 (stereo not given)
Potency [5]: inactive

Cc1nc2ccccn2c(=O)c1CCN1CCC(C(=O)c2ccc(F)cc2)CC1
Potency [8]: inconclusive [cytotoxic, partial curve, poor fit] | Potency [9]: inconclusive [cytotoxic, partial curve] | Potency [10]: inconclusive [cytotoxic, partial curve, poor fit] | Potency [11]: inconclusive [inhibitor, single point] | Potency [12]: inconclusive [falling, partial curve] | Potency (UISO): inactive | Potency (WaGa): inconclusive [inhibitor, single point]

Cc1c(C)n(CCN(C)C)c2ccc(C(=O)OCCN(C)C)cc12
Potency [13]: inconclusive [cytotoxic, full curve, poor fit] | Potency [8]: inactive | Potency [1]: inconclusive [cytotoxic, partial curve] | Potency [9]: inconclusive [cytotoxic, single point] | Potency [2]: inconclusive [inhibitor, full curve, poor fit] | Potency (WaGa): inconclusive [inhibitor, single point]

c1ccc(Cn2c(-c3ccc(OCC(C4CCNCC4)n4c(-c5ccccc5)nc5ccccc54)cc3)nc3ccccc32)cc1 (stereo not given)
Potency [5]: inconclusive [inhibitor, single point] | Potency [4]: inactive
